Reference: paper PMC4336329 (PLoS ONE, 2015)
About 2,200 (0.71%) of roughly 310,000 compounds showed an effect of 50% or more. The effect is printed as a negative number. This is one part of the list.

Each compound was assayed against human ether-à-go-go-related gene (hERG) potassium channel (human, UniProt Q12809) (assay: primary screen, population patch clamp on CHO cells stably expressing hERG).
Sequence of human ether-à-go-go-related gene (hERG) potassium channel (Q12809 whole entry, looked up): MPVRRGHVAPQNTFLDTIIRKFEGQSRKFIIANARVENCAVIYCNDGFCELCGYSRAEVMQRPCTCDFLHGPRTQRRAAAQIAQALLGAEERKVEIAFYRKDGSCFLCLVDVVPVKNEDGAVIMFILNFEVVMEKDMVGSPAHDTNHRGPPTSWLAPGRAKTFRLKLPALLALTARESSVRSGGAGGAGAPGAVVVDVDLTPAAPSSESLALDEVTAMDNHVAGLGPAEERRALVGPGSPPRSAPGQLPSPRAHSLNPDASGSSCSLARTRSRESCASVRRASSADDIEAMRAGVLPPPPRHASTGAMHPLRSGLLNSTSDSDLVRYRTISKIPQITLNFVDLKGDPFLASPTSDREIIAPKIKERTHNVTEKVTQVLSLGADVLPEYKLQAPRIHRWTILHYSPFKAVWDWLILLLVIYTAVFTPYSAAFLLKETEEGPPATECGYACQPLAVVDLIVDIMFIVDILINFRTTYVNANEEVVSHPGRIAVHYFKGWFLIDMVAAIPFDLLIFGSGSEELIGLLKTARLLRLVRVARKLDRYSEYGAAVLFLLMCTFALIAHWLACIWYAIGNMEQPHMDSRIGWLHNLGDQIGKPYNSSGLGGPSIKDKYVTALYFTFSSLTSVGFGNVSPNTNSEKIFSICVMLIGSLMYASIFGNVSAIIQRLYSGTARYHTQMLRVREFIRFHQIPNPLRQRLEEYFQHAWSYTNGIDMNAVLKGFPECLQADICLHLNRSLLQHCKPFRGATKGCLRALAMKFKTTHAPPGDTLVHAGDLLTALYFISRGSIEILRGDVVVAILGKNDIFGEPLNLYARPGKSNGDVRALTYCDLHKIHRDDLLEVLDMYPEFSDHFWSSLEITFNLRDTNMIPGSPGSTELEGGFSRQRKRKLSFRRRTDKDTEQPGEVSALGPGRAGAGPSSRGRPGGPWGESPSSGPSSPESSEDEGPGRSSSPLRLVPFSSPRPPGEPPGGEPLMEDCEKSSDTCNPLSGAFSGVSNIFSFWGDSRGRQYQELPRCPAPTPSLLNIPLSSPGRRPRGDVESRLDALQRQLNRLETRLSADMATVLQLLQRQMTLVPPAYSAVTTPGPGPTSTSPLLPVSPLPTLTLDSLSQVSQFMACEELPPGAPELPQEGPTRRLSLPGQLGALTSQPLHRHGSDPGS

SMILES | hERG current change (%, negative = inhibition) at 1uM [%]
Cc1cc(-c2csc(N)n2)c(C)n1Cc1ccccc1 | 1.75
CCCC(C)CO (stereo not drawn) | 11.1
CCN(CC)C(=O)CC(c1cc(OC)c(OC)c(OC)c1)c1c(OC)cc(OC)c2c(-c3ccccc3)cc(=O)oc12 (stereo not drawn) | 18.5
CN(C)CC(C)(C)CNS(=O)(=O)c1ccc(Cl)s1 | 15.4
CCc1cccc(Nc2cc(C)nc3ncnn23)c1 | 2.1
CCOC(=O)C1C2C=CC3(CN(Cc4ccccc4)C(=O)C13)O2 (stereo not drawn) | -0.0721
COc1ccc(/C=C/C(=O)NC(=S)NNC(=O)c2ccco2)cc1OC | 4.79
CC1Cc2cc(S(=O)(=O)NCc3ccccc3)ccc2N1C(=O)C1CC1 (stereo not drawn) | 8.4
COc1cc(C(c2c(C)n(C)n(-c3ccccc3)c2=O)c2c(C)n(C)n(-c3ccccc3)c2=O)cc(Br)c1O | 16.9
Cc1nc(SCC(=O)NCc2ccco2)c2c3c(sc2n1)CCCC3 | 1.52
Cn1nnc(NC(=O)c2ccc(C(C)(C)C)cc2)n1 | 8.06
Cc1ccc(NC(=S)NC2CCCC2)cc1C | 9.49
CCOc1ccc(C2SCC(=O)Nc3c2c(=O)[nH]n3C2CCCCCC2)cc1 (stereo not drawn) | 0.105
CC(C)(CO)CNC(=O)c1ccc2nc(Cc3cccc(Cl)c3)oc2c1 | 2.77
O=C(O)C1C2CCC(O2)C1C(=O)Nc1ccc(O)cc1 (stereo not drawn) | 11.6
c1ccc(CSc2nnc3ccc(-c4ccncc4)nn23)cc1 | -12
Cc1nc(C)n(C)c(=O)c1-c1ccccc1 | 0.842
CCOC(=O)N/N=C\c1ccc(OC/C=C/c2ccccc2)c(OC)c1 | 12.3
Cc1ccc(CNS(=O)(=O)c2cc(F)ccc2CN2C(=O)c3cccnc3C2=O)o1 | 12
COc1cccc(NC(=O)COC(=O)c2c(NC(C)=O)sc(C)c2C)c1 | 9.59
Cc1ccccc1NC(=O)COC(=O)c1ccccc1SCC(=O)N1CCCC1 | 12.3
Nc1ncnc2c1ccn2[C@@H]1O[C@H](CO)[C@@H](O)[C@H]1O | 3.09
CN1C(=S)SC(/[N+]([O-])=C/c2ccc(Cl)cc2)C1(C)C (stereo not drawn) | 17.2

SMILES | hERG current change (%, negative = inhibition) at 1uM [%]
Fc1cccc(/C=N/Nc2nc3ccccc3[nH]2)c1 | 14.3
O=C(COc1nsnc1N1CCOCC1)Nc1ccc(Cl)cc1 | 9.65
Cn1c(=O)c2c(nc(N/N=C/c3cccs3)n2Cc2ccccc2)n(C)c1=O | 7.42
CCOC(=O)C1=C(C)NC(=O)C1CC(=O)Nc1ccccc1 (stereo not drawn) | 12
CCOC(=O)N1CCN(C(=O)c2ccc(SC)cc2OC)CC1 | 10.4
Fc1ccccc1COc1cccc(/C=N/n2cnnc2)c1 | -12.6
NC(=O)c1cnccn1 | 12.5
Cn1nnnc1SCC(=O)Nc1c(Cl)cccc1Cl | 9.9
CCC1(CC)NC(=O)N(CC(=O)OCC(=O)Nc2ncc(Cl)cc2Cl)C1=O | 4.27
O=C1c2ccccc2NC(c2cccnc2)N1c1ccccc1F (stereo not drawn) | 7.17
O=C(Oc1c(Cl)cc(Cl)c2cccnc12)c1cccc([N+](=O)[O-])c1 | 14.9
Cc1c(Cl)cccc1N=C(N)N=C(N)N | 10.4
COc1cccc(C(=O)NCCSc2c(C)[nH]c3ccccc23)c1OC | 8.32
O=C(NCCCN1CCCC1=O)c1cc(NS(=O)(=O)c2ccc(F)cc2)cc(NS(=O)(=O)c2ccc(F)cc2)c1 | -7.14
O=C(OCC(=O)N1CCCc2ccccc21)c1cc(Cl)ccc1O | 16.2
Cc1ccc(S(=O)(=O)Nc2nncs2)cc1 | -4.68
O=C(CCNC(=O)c1ccc([N+](=O)[O-])cc1)Nc1cccc(S(=O)(=O)N2CCCCC2)c1 | -3.91
COc1cc(-c2nnc(SCC(=O)c3ccc(C)cc3)o2)cc(OC)c1OC | 13.5
CNC(=O)COC(=O)c1cc(F)c(F)cc1Cl | 14.3
CC1=C(C(=O)OCc2ccccc2)C(c2cccc(F)c2)NC(=O)N1 (stereo not drawn) | 10.4
COc1ccc(N2CCN(C(=O)CSc3ncn[nH]3)CC2)cc1 | 8.5
Cn1c(=O)c2c(-c3ccc(C(C)(C)C)cc3)n(N3CCOCC3)cc2n(C)c1=O | -18
COc1cc(OC)cc(C(=O)N[C@H](C(=O)Nc2ccccc2N2CCOCC2)C(C)C)c1 | 9.22

SMILES | hERG current change (%, negative = inhibition) at 1uM [%]
CCN(CC)S(=O)(=O)c1ccc(S(=O)(=O)N(CC(=O)Nc2ccccc2)Cc2ccco2)cc1 | 0.938
COc1ccc(C(N)CCc2ccco2)cc1.Cl (stereo not drawn) | 9.14
Cc1ccc(C2=NNC(c3ccc(Cl)cc3)=Nc3ccccc32)o1 | 11.2
O=C(NCCOc1ccccc1)c1cc2ccccc2o1 | 3.1
CN1CCN(c2ccncc2S(=O)(=O)N2CCCCC2)CC1 | 13.8
O=C(c1cccc([N+](=O)[O-])c1)N1CCc2ccccc21 | 17.2
CCOc1cc(N2CCOCC2)c(OCC)cc1NC(=O)Cc1ccc(OC)c(OC)c1 | 10.1
CC1CCc2sc(-c3n[nH]c(=S)o3)cc2C1 (stereo not drawn) | 9.17
Cc1ccc(C(=O)Nc2cc3c(oc2=O)CCCC3=O)cc1 | 4.72
C[N+]1(C)CCOC(O)(c2ccc(-c3ccc(C4(O)C[N+](C)(C)CCO4)cc3)cc2)C1.[Br-] (stereo not drawn) | 9.47
Cc1ccc(C2c3c(-c4ccccc4O)n[nH]c3C(=O)N2Cc2ccncc2)cc1 (stereo not drawn) | 12.8
N#CCCN(Cc1ccccc1)C(=O)Nc1ccc2c(c1)CCO2 | 13.2
CC(C(=O)Nc1ccc(C#N)cc1)N(C)CC(=O)Nc1ccccc1Br (stereo not drawn) | 12.4
O=C(CCCCCN1C(=O)c2cccc3cccc(c23)C1=O)NCc1ccco1 | 15.1
Cn1c(=O)c2c(nc(OCc3cccnc3)n2Cc2ccccc2)n(C)c1=O | -8.26
CCO[C@H]1OC(C(N)=O)=C[C@@H](C2CCCCC2)[C@@H]1CCCO | 13.6
C=CCn1c(SCc2ccccc2Cl)nnc1-c1sc2nc(C)cc(C)c2c1N | 12.2
O=C1CC(Sc2ncccc2C(=O)O)C(=O)N1 (stereo not drawn) | 5.9
Cc1ccccc1C(=O)OCc1nnc(-c2ccc(Cl)cc2)o1 | 11.2
CCN1C(=O)c2cccc3c(S(=O)(=O)NCC4CCCO4)ccc1c23 (stereo not drawn) | 11.1
COc1ccc(N(CC(=O)O)S(=O)(=O)c2ccc(C)cc2)cc1Cl | 19.2
CC(=O)c1ccc(N2CCN(C(=O)c3cc4c(-c5ccccc5F)nn(C)c4s3)CC2)cc1 | -11.6
COC(=O)C1(C)Nc2ccccc2C(=O)N1c1ccccc1C (stereo not drawn) | 2.92

SMILES | hERG current change (%, negative = inhibition) at 1uM [%]
O=C(c1cc(COc2ccc(F)cc2Cl)on1)N1CC[C@@H]2CCCC[C@H]2C1 | 11.3
COc1ccc(/C=C/C(=O)O)cc1S(=O)(=O)NCc1cccnc1 | 7.86
CC1Sc2ccc(C(=O)Nc3ccccc3OC(F)F)cc2NC1=O (stereo not drawn) | 9.85
CCCCN(CC(O)COc1cccc(C)c1)CC(O)COc1cccc(C)c1 (stereo not drawn) | -33
COc1ccc(-c2nc(NC(=O)c3nc4nccc(C)n4n3)sc2C)cc1 | 16.8
COc1ccc2cc(C(c3nnnn3Cc3ccc(F)cc3)N3CCCCCC3)c(=O)[nH]c2c1 (stereo not drawn) | -10.2
O=C(OCCN1C(=O)c2cccc3c(N4CCOCC4)ccc(c23)C1=O)c1ccc(Cl)cc1 | 12.3
Cc1cccc(OCC(=O)NCCCNC(=O)c2ccncc2)c1 | 11
O=C(O)c1cccc2c1C(=O)N(Cc1ccccc1)C2 | -0.282
O=C(CSc1nc2c(c(=O)n1-c1ccc(Cl)cc1)SCC2)Nc1ccc2c(c1)OCCO2 | 15.6
CCn1nnnc1SCC(=O)Nc1cc(OC)cc(OC)c1 | 11.1
O=C(Nc1cccnc1)c1cc(-c2ccc(Br)cc2)on1 | 14.1
Cc1c(C(=O)N2CCN(c3ccccc3)CC2)oc2c(F)cccc12 | 21.4
CCNC(=S)NS(=O)(=O)c1ccccc1 | 9.45
Oc1ccc(Br)cc1C=Nc1cccn2cc(-c3ccccc3)nc12 | 11.6
COC(=O)c1ccc(C(=O)N=c2sccn2C)cc1 | 1.84
COc1ccc(NC(=O)c2sc3ncn(CC(=O)N4CCN(c5ccccn5)CC4)c(=O)c3c2C)cc1OC | 23.1
COc1cccc(CNC(=O)CCCc2nnc3n(C)c(=O)c4sccc4n23)c1 | 10.4
CCNC(=O)CC1C(=O)N(c2ccc(OC)cc2)C(=S)N1CCc1ccncc1 (stereo not drawn) | 1.1
Cc1nccn1Cc1ccc(Cl)nc1 | 20.8
COc1ccc(-c2c(-c3ccccc3OC)sc3ccccc23)cc1 | 11.6
